± gives the standard deviation of the averaged measurements. Some of the results follow.
What follows are sequences tested on PfAP2-G AP2 domain (GST-tagged) (assay: gcPBM binding intensity (ln(normalized median fluorescence intensity)); higher = stronger DNA binding).
Procedure, shortened: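 Binding intensity is defined as the maximum Masliner-normalised natural-log median intensity across replicate spots for either probe orientation. It was measured on an Agilent 4 × 180k array of primer-extended double-stranded 36-bp intergenic genomic probes and negative controls, to which GST-tagged P. falciparum DNA-binding domains made in E. coli were applied for 1 h in 1× PBS with 1% milk, 0.2 mg/ml BSA, 0.5% salmon testes DNA and 0.03% Triton X-100. Detection was by Alexa488 anti-GST antibody and scanning at 488 nm.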

Sequence	gcPBM binding intensity (ln)
GGGAAAATATTTGGGTGTACAAACAAATTAGCTAGC [XGTACX_site6795]	11.3 ± 0.95
TATGATTTCACATAATGTACTTGCTAATTCGTGAAT [XGTACX_site1408]	11 ± 0.86
TCTTTAACAAGTTAAACACACATACATAAATACATA [CACACA_site5406]	10.1 ± 0.35
TTATGTCATAAATGCACACATATACATTGTTTTGAT [CACACA_site646]	9.945 ± 0.007
TTTTATGAATAATTATGTACATAACAAATGATATAT [XGTACX_site8318]	11.2 ± 0.71
TACAAAAAAAAATAAAATACATATATATATATATAT [XGTACX_negctrl_site608]	10.1 ± 0.73
CCCTATATAAATAGCTGTACATTTGAACATGTTCAG [XGTACX_site2187]	11 ± 0.58
CATTTACATGCCAACATGCACTGAACAATCTTTATA [GTGCAC_site9797]	9.98 ± 0.057
ACAAAACTTTTAAGAACACACAAAAATGTACTATCG [CACACA_site7245]	10.9 ± 0.52
CAATAAAAATTAAAATGTACAAATAAATATAAATAT [XGTACX_site7265]	10.8 ± 0.29
TTTACAGGAAAAAATACACACATTATTTTACCTTAT [CACACA_site2833]	9.9 ± 0.071
AGTGTGCTCAGCTTAGCACAAATTGGAATACCATGT [CACACA_negctrl_site367]	10.2 ± 0.14
ATGAATTATAAATATTCACACAATATTTTTCATATG [CACACA_site4484]	9.88 ± 0.31
TTTTTTTCTTAAAGATGTACTTTTTAAAAATAATCT [XGTACX_site1429]	11.4 ± 1
GTAGTAATAAATTAAAGTACAGAATATATTATACTA [XGTACX_site2809]	11.2 ± 0.9
GAAAATGAAATCCTTGCATGTAAAATTAAAATAGAA [TGCATGCA_site569]	9.77 ± 0.13
AAAAGGGAAATAAAATAAAAAAAGAAACATATATAG [CACACA_negctrl_site455]	9.84 ± 0.23
GATTCTTCACCGTACTCACACATATATATATATATA [CACACA_site5665]	11.1 ± 0.73
TCTTTTTTTTTTAAACGTACATTGCATTATCACGTA [XGTACX_site6873]	11.2 ± 0.78
ATCCATTATTTTTGTTGTACGGGTAACTTTAAAAAG [XGTACX_site2226]	11.3 ± 0.97
AGCTCTTGTCATTTTGCACACACACCCGTATAGGTT [CACACA_site3056]	10.23 ± 0.035
ATTTTTTTATAAGAAAATTTCTAACGTTAAAAAAAA [CACACA_negctrl_site1367]	9.9 ± 0.18
CAAACAAACAAATATACACACTTTTGTATAAAGTAA [CACACA_site5860]	9.83 ± 0.057

Sequence	gcPBM binding intensity (ln)
TATAATTATATATATAGTACAGATTTGTTATGTTTA [XGTACX_site7724]	10.8 ± 0.59
TAATTATATGTATACACACACATACATTTACATAAC [CACACA_site3238]	10.2 ± 0.14
TTAATTTCTATATACGCATGTATGAATAAGATATTG [TGCATGCA_site202]	9.99 ± 0.18
TATCTCATAGTATACACACACACACCCACCCATATA [CACACA_site1739]	10.5 ± 0.28
AATATATATATATTCACACATAAAAAAGTAAAAAAA [CACACA_site5040]	9.94 ± 0.014
CACACGCACGAACACACACACACACGCATATAAATA [CACACA_site6302]	10.6 ± 0.52
ATTAAGACACATTGCACACGTGCACCCATAGAAAAA [CACACA_site408]	10.7 ± 0.57
TATTTATTATTAAGATGTACATAAAACACTGAATAA [XGTACX_site4246]	11.3 ± 0.79
GACCATATGAATAATGCACACGTTTTAAAATATTAA [CACACA_site5312]	10.23 ± 0.028
TGAAAAAGGAAAAAAAAAAAAAAAAAAAAAACGAAA [GTGCAC_negctrl_site555]	9.65 ± 0.11
ATAATAATATATATTGTACACACAAAATGGGAAAAA [CACACA_site8568]	11.4 ± 0.67
TTTTAATTAAGACACACACACACATATAAATATGTA [CACACA_site7144]	10.1 ± 0.17
TATCATTTCATATCAAGTACAAACATTTTACATATA [XGTACX_site5307]	11 ± 0.62
TATATATATATAATAGTGCATAAATAAATATATAAA	9.99 ± 0.17
TAAAAAATAAAAATTGCACACTAAAAAATTACCCAC [CACACA_site5823]	10.4 ± 0.38
TTGATTTTTATTTTTAAAATAAATAAATTTCAAATG [TGCATGCA_negctrl_site199]	9.71 ± 0.11
TTTTTTTTTCTTTGGTGTACAATGTAATAGAAAATA [XGTACX_site227]	11.4 ± 0.86
AAAAAAAACAAACACACACACAAATATTTATATATT [CACACA_site436]	9.925 ± 0.035
TAAAAAGAAATGTAAAGTACAAATTTGAATAACATG [XGTACX_site7981]	10.9 ± 0.45
AAAGAGAACAGAAGTACACACATGTTCTTTTAGTAA [CACACA_site5557]	11.6 ± 0.96
ATATTCTGCTGTTTAGTGCAATTATGAAATTATGAT	9.98 ± 0.16
AGGAAAAAAGAAAAAACACACATAAATATATATATA [CACACA_site3085]	9.77 ± 0.37
CATACAGACATACATACACACATACCTATAAATATA [CACACA_site6995]	10.2 ± 0.26

Sequence	gcPBM binding intensity (ln)
AAATGAAATAAAATCATATATTTATAATTATTATAA [TGCATGCA_negctrl_site612]	9.32 ± 0.26
ATATGTATTTATATATGTTTGATTTTTTTTTTTTTT [TGCATGCA_negctrl_site506]	9.595 ± 0.007
GTTTTATTTTGTTTCTATTTGACACATGTGATTATT [CACACA_negctrl_site1246]	10.09 ± 0.099
ATTCAATATATATACACACACACTTTTAATAATTAA [CACACA_site3770]	10.1 ± 0.15
ATATGTATGTATGTATGTACTTATTTATTTATTAAT [XGTACX_site8018]	11.4 ± 0.81
TACATAAATTAAAACACACACACACTAATAAAAAAA [CACACA_site8712]	10.12 ± 0.057
TAGCTCGTTCGGAGCACACACATATATATATATATA [CACACA_site1948]	10.6 ± 0.79
TTTTTTTTTGAATATTGTACATATATATTACTTTTA [XGTACX_site5520]	10.9 ± 0.51
AAAAAATTATATAAATGTACATTTTGGCTAGACATG [XGTACX_site5977]	10.8 ± 0.52
CATATATATAATTATTCACACAATAGTTAAAAGTAT [CACACA_site5302]	9.93 ± 0.057
TTAAAAATAATATTATGTACTAAGAATAAATATATA [XGTACX_site3100]	10.7 ± 0.52
ATTTCATATACAAATTGTACATACAATTTTATGTTT [XGTACX_site3240]	10.9 ± 0.46
CTTAATATTCTTTAAAGTACACAAAATAAGAATATA [XGTACX_site5489]	11.4 ± 0.8
TGCAAGGAAAAACACACACACACATAAATGTATATA [CACACA_site751]	10.2 ± 0.33
TCTTGTAAATATATGTGTATATTATATTTTATTATA [TGCATGCA_negctrl_site117]	9.6 ± 0.028
TGTTAAAATAAAATCTATTACATTTTTATGGTTATA [XGTACX_negctrl_site525]	9.555 ± 0.049
TTATATTTTTTAATTACACACAATTTTTATAAATAT [CACACA_site4148]	9.985 ± 0.021
ATCTCATAAAACCGCACACACATAAAATTTGCATTA [CACACA_site3891]	10.05 ± 0.021
AAAAAACACGCACATACACACAAAAATGTTATAAAT [CACACA_site6188]	10.5 ± 0.51
ATATTGGAGCACAACACACACAAGTATAAATATGGA [CACACA_site6834]	10.4 ± 0.3
CTAGTAAAAAATGCAAGTACATACATTATAAGTATA [XGTACX_site3908]	11.2 ± 0.72
GTATAACACAAGTGAAGTACAGGGGTAAACATTTAT [XGTACX_site3203]	11.5 ± 1.1
TACAGATAAAAGTACACACACACACCGATATATATA [CACACA_site4675]	11.5 ± 0.96

Sequence	gcPBM binding intensity (ln)
CATAAAAATGTATCAAGTACACATTTATTTATCCAT [XGTACX_site152]	11.3 ± 0.77
TTTTTTTTTAAAGAAAATAAAAATATGTACTTGACA [CACACA_negctrl_site1113]	11.2 ± 1.1
AAACAATTTTTATTTTGTACATAACAATATATTTAT [XGTACX_site1375]	10.6 ± 0.28
TTTTTATATTTTATTAGTACTTATTATATATATAAT [XGTACX_site4900]	11.1 ± 0.47
TTAAAATAAAGAGCAGTGCGCATATTTTGTTATTAT [GTGCAC_site9753]	9.96 ± 0.014
ATAAAAAAATATGTAAACATATATATGTATTTATGT [CACACA_negctrl_site1517]	9.76 ± 0.071
GAGTAAAACAAATATACACACCATAAAGTTATAAAA [CACACA_site5008]	9.89 ± 0.18
AATATAAAAATGCACACACACAAAAAAAAAAAAAAA [CACACA_site6546]	10.1 ± 0.45
ATTTTACATATTTGCACACATATATTTATATACATA [CACACA_site854]	10.2 ± 0.16
TTATTTGTTTAATATGCATGCTAAAAGGGTTGATGT [TGCATGCA_site581]	9.96 ± 0.099
AATTTAAATTCATCACGTACATACGTGAATATACAC [XGTACX_site5220]	11.3 ± 0.96
TATATTAATTCGTTTTGTACACACATAATGAATAAT [XGTACX_site4618]	11.1 ± 0.8
ATTTATCTATATATATGTACATATTATTTTTGTGGT [XGTACX_site7390]	11.3 ± 0.73
GATATACAATTTAAGTGTACTATAATAAAATATATA [XGTACX_site3013]	11.2 ± 0.84
ATAAAAAAATATAAATGTACATATATATATATATAT [XGTACX_site5620]	11 ± 0.66
TCTAACATATCTTTAATACACACTTAAAAAAGTACT [CACACA_site652]	10.9 ± 0.45
TTTAAAATATTGTATTGTACGCAATAAAAAATACCA [XGTACX_site182]	11.5 ± 1.2
ATTAAATAAAATCATGCACACAATATATATTTTAAG [CACACA_site2495]	9.99 ± 0.11
ATAAGCATCTTTTGTGTGCACATAACAAAAAAAAAA	10.6 ± 0.53
TAAGGTAGTTCTGTATCACACACATATATATATATA [CACACA_site8693]	10.3 ± 0.46

— the supplement of paper PMC11417369
